Results from the supplement of paper PMC8728848.
Some of the results follow.

How the values were obtained:
Experiment in all cases: glycan array binding signal (z-score within array); higher = stronger binding
Settings in all cases: glycan notation: IUPAC condensed, linker removed; mutation: F335Y
Fuc(a1-2)Gal = molecular target: Fuc(a1-2)Gal
In short: (§1)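 The binding signal is a Z-score computed within each array. Data were drawn from 3228 arrays in the Consortium for Functional Glycomics database, restricted to those with a known protein sequence. Scores were averaged over arrays of the same protein sequence at different concentrations or buffers, and over linkers, and negative values can be taken as non-binding.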

Fuc(a1-2)Gal(b1-3)GalNAc = molecular target: Fuc(a1-2)Gal(b1-3)GalNAc
In short: as §1

[1] = molecular target: Fuc(a1-2)Gal(b1-3)GalNAc(b1-3)Gal
In short: as §1

[2] = molecular target: Fuc(a1-2)Gal(b1-3)GalNAc(b1-3)Gal(a1-4)Gal(b1-4)Glc
In short: as §1

[3] = molecular target: Fuc(a1-2)Gal(b1-3)GalNAc(b1-4)[Neu5Ac(a2-3)]Gal(b1-4)Glc
In short: as §1

Fuc(a1-2)Gal(b1-3)GlcNAc = molecular target: Fuc(a1-2)Gal(b1-3)GlcNAc
In short: as §1

[4] = molecular target: Fuc(a1-2)Gal(b1-3)GlcNAc(b1-3)Gal(b1-4)Glc
In short: as §1

[5] = molecular target: Fuc(a1-2)Gal(b1-3)[Fuc(a1-4)]GlcNAc
In short: as §1

Fuc(a1-2)Gal(b1-4)Glc = molecular target: Fuc(a1-2)Gal(b1-4)Glc
In short: as §1

Fuc(a1-2)Gal(b1-4)Glc6S = molecular target: Fuc(a1-2)Gal(b1-4)Glc6S
In short: as §1

Fuc(a1-2)Gal(b1-4)GlcNAc = molecular target: Fuc(a1-2)Gal(b1-4)GlcNAc
In short: as §1

[6] = molecular target: Fuc(a1-2)Gal(b1-4)GlcNAc(b1-3)Gal(b1-4)GlcNAc
In short: as §1

[7] = molecular target: Fuc(a1-2)Gal(b1-4)GlcNAc(b1-3)Gal(b1-4)GlcNAc(b1-3)Gal(b1-4)GlcNAc
In short: as §1

[8] = molecular target: Fuc(a1-2)Gal(b1-4)GlcNAc6S
In short: as §1

[9] = molecular target: Fuc(a1-2)Gal(b1-4)[Fuc(a1-3)]GlcNAc
In short: as §1

[10] = molecular target: Fuc(a1-2)Gal(b1-4)[Fuc(a1-3)]GlcNAc(b1-3)Gal(b1-4)[Fuc(a1-3)]GlcNAc
In short: as §1

[11] = molecular target: Fuc(a1-2)Gal(b1-4)[Fuc(a1-3)]GlcNAc(b1-3)Gal(b1-4)[Fuc(a1-3)]GlcNAc(b1-3)Gal(b1-4)[Fuc(a1-3)]GlcNAc
In short: as §1

Fuc(a1-2)Gal6S(b1-4)Glc = molecular target: Fuc(a1-2)Gal6S(b1-4)Glc
In short: as §1

[12] = molecular target: Fuc(a1-2)Gal6S(b1-4)Glc6S
In short: as §1

[13] = molecular target: Fuc(a1-2)Gal6S(b1-4)GlcNAc
In short: as §1

Fuc(a1-2)[Gal(a1-3)]Gal = molecular target: Fuc(a1-2)[Gal(a1-3)]Gal
In short: as §1

[14] = molecular target: Fuc(a1-2)[Gal(a1-3)]Gal(b1-3)GlcNAc
In short: as §1

[15] = molecular target: Fuc(a1-2)[Gal(a1-3)]Gal(b1-4)Glc
In short: as §1

[16] = molecular target: Fuc(a1-2)[Gal(a1-3)]Gal(b1-4)GlcNAc
In short: as §1

[17] = molecular target: Fuc(a1-2)[Gal(a1-3)]Gal(b1-4)[Fuc(a1-3)]GlcNAc
In short: as §1

[18] = molecular target: Fuc(a1-2)[Gal(a1-4)]Gal(b1-4)GlcNAc
In short: as §1

[19] = molecular target: Fuc(a1-2)[GalNAc(a1-3)]Gal
In short: as §1

[20] = molecular target: Fuc(a1-2)[GalNAc(a1-3)]Gal(b1-3)GlcNAc
In short: as §1

[21] = molecular target: Fuc(a1-2)[GalNAc(a1-3)]Gal(b1-4)Glc
In short: as §1

[22] = molecular target: Fuc(a1-2)[GalNAc(a1-3)]Gal(b1-4)GlcNAc
In short: as §1

B1: Surfactant Protein D (Human); Neck + Carbohydrate Recognition Domain (NCRD) (Homo sapiens) (protein)
chain: MLLFLLSALVLLTQPLGYLEAEMKTYSHRTMPSACTLVMCSSVESGLPGRDRDGREGPRGEKGDPGLPGAAGQAGMPGQAGPVGPKGDNGSVGEPGPKGDTGPSGPPGPPGVPGPAGREGALGKQGNIGPQGKPGPKGEAGPKGEVGAPGMQGSAGARGLAGPKGERGVPGERGVPGNTGAAGSAGAMGPQGSPGARGPPGLKGDKGIPGDKGAKGESGLPDVASLRQQVEALQGQVQHLQAAFSQYKKVELFPNGQSVGEKIFKTAQFVKPFTEAQLLCTQAGGQLASPRSAAENAALQQLVVAKNEAAFLSMTDSKTEGKFTYPTGESLVYSNWAPGEPNDDGGSEDCVEIYTNGKWNDRACGEKRLVVCEF
- glycan array binding signal (z-score) (Fuc(a1-2)Gal): -0.188
- glycan array binding signal (z-score) (Fuc(a1-2)Gal(b1-3)GalNAc): -0.19
- glycan array binding signal (z-score) [1]: -0.184
- glycan array binding signal (z-score) [2]: -0.181
- glycan array binding signal (z-score) [3]: -0.189
- glycan array binding signal (z-score) (Fuc(a1-2)Gal(b1-3)GlcNAc): -0.191
- glycan array binding signal (z-score) [4]: -0.189
- glycan array binding signal (z-score) [5]: -0.193
- glycan array binding signal (z-score) (Fuc(a1-2)Gal(b1-4)Glc): -0.186
- glycan array binding signal (z-score) (Fuc(a1-2)Gal(b1-4)Glc6S): -0.185
- glycan array binding signal (z-score) (Fuc(a1-2)Gal(b1-4)GlcNAc): -0.191
- glycan array binding signal (z-score) [6]: -0.183
- glycan array binding signal (z-score) [7]: -0.178
- glycan array binding signal (z-score) [8]: -0.193
- glycan array binding signal (z-score) [9]: -0.179
- glycan array binding signal (z-score) [10]: -0.064
- glycan array binding signal (z-score) [11]: -0.168
- glycan array binding signal (z-score) (Fuc(a1-2)Gal6S(b1-4)Glc): -0.19
- glycan array binding signal (z-score) [12]: -0.196
- glycan array binding signal (z-score) [13]: -0.188
- glycan array binding signal (z-score) (Fuc(a1-2)[Gal(a1-3)]Gal): -0.183
- glycan array binding signal (z-score) [14]: -0.183
- glycan array binding signal (z-score) [15]: -0.188
- glycan array binding signal (z-score) [16]: -0.186
- glycan array binding signal (z-score) [17]: -0.176
- glycan array binding signal (z-score) [18]: -0.187
- glycan array binding signal (z-score) [19]: -0.184
- glycan array binding signal (z-score) [20]: -0.189
- glycan array binding signal (z-score) [21]: -0.187
- glycan array binding signal (z-score) [22]: -0.182
